Reference: PubChem BioAssay AID1745845 (National Center for Advancing Translational Sciences (NCATS), 2022)
“And” between values parts separate entries of the source, which are not always exact repeats. Equal values may be shown once. About 2,600 (0.72%) of roughly 360,000 compounds were called active. Inconclusive means that the source gave no clear call. Such entries were picked first, then a sample of the others. Calls follow the shape of the dose curve; as a rule, active = well fitted inhibition curve with a large enough effect; inconclusive = small, poorly fitted or top-dose-only effect; inactive = no such curve, though single readings can be large or run the other way. Where the call is inconclusive, the potency comes from a doubtful curve fit.

Test: Primary qHTS for Inhibitors of ATXN expression; also: nearly all actives have a fitted effect of over 55% in size
Settings: HEK-293 ATXN2-luciferase reporter, luminescence, 24 h; activity change, negative = inhibition: at 57 µM (top of the series)
In short: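 ATXN2-luciferase reporter cells (luciferase flanked by upstream and downstream ATXN2 gene portions) were treated 24 h at 37 °C with compounds at up to 57 uM. SteadyGlo luminescence gave expression; GF-AFC fluorescence gave viability.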
% is scaled to controls: 0 for no effect and ±100 for the full control effect; potency is read from the fitted curve at half-maximal effect; tags tell the direction and shape of the fitted curve.

Question: With `CC(=O)N(O)CCCCCNC(=O)CCC(=O)N(O)CCCCCNC(=O)CCC(=O)N(O)CCCCCN` as the molecule, how does the Potency read?
Answer: Its Potency is inconclusive: 31.6 µM [inhibitor, single point] and inconclusive: 10 µM [inhibitor, full curve].

Question: With `CCOC(=O)C1CCN(C(=O)Cn2ncc3c4ccccc4n(Cc4ccc(F)cc4)c3c2=O)CC1` as the molecule, how does the Potency read?
Answer: The Potency was inconclusive: 39.8 µM [inhibitor, single point].

Question: For `COc1ccccc1Cn1c(=O)c2ccccc2n2c(SCC(=O)N3CCCCC3)nnc12`, which “activity change, negative = inhibition” value is on record?
Answer: The value was inactive: 2.28%.

Question: For `COC(=O)[C@]12CCCCC=C1N(Cc1ccccc1)C(=O)[C@H](CC(=O)N1CCC(c3ccccc3)CC1)C2`, which Potency is on record?
Answer: The Potency was inconclusive: 39.8 µM [inhibitor, single point].

Question: For `CCCCCC[n+]1ccccc1/C=C/c1ccc(N(C)C)cc1`, which Potency is on record?
Answer: The Potency was inconclusive: 0.891 µM [inhibitor, full curve].

Question: For `CCC1(c2ccccc2)ON(c2c(Br)cccc2Br)C1=O` (stereo unspecified), which Potency is on record?
Answer: The Potency was active: 22.4 µM.

Question: Which “activity change, negative = inhibition” value does the source give for `CC1CCN(CCCCOc2ccc([N+](=O)[O-])cc2)CC1` here?
Answer: The value was inactive: -20.5%.

Question: For `COc1ccc(C(=O)c2c(N)c(-c3nc(-c4ccc(OC)cc4)cs3)c3ccccn23)cc1`, which “activity change, negative = inhibition” value is on record?
Answer: The value was inactive: 7.27%.

Question: For `CC(C)=CCOc1ccc([C@@H]2COc3c(ccc4c3C=CC(C)(C)O4)C2)c(O)c1`, which Potency is on record?
Answer: The Potency was inconclusive: 22.4 µM [inhibitor, single point].

Question: For `CCn1c(-c2nonc2N)nc2cncc(CNC3CCNCC3)c21`, which Potency is on record?
Answer: Its Potency is inconclusive: 24.3 µM [inhibitor, partial curve, poor fit].

Question: Which Potency does the source give for `COc1ccc(C(CCN2CCCC(C)C2)c2c(OC)cc(OC)c3c(-c4ccccc4)cc(=O)oc23)cc1` (stereo unspecified) here?
Answer: The Potency was inconclusive: 31.6 µM [inhibitor, single point].

Question: With `NCCCNC(=S)NCCCN(Cc1ccc(Cl)cc1)c1ccc(Br)cn1` as the molecule, how does the Potency read?
Answer: The Potency was inconclusive: 39.8 µM [inhibitor, single point].

Question: With `COc1ccc(S(=O)(=O)N2CCN(C(=O)CC3CC4CCC3C4)CC2)cc1` (stereo unspecified) as the molecule, how does the Potency read?
Answer: Its Potency is inconclusive: 0.752 µM [inhibitor, partial curve, poor fit].

Question: For `CCOC(=O)Cn1c(=O)c(-c2ccccc2NCc2ccccc2)nc2ccccc21`, which Potency is on record?
Answer: The Potency was inconclusive: 22.4 µM [inhibitor, single point].

Question: With `COc1ccccc1NNC(=O)c1cc(C(C)(C)C)nn1Cc1ccccc1` as the molecule, how does the “activity change, negative = inhibition” value read?
Answer: The value was inactive: 34.4%.

Question: With `NC(=O)c1ccccc1NC(=O)CN1CCN(Cc2ccc(Cl)cc2Cl)CC1` as the molecule, how does the “activity change, negative = inhibition” value read?
Answer: The value was inactive: -23%.

Question: With `COc1ccc(NC(=O)c2c(NC(=O)c3ccncc3)sc3c2CCC(C(C)(C)C)C3)cc1` (stereo unspecified) as the molecule, how does the “activity change, negative = inhibition” value read?
Answer: Its value is inactive: 0.42%.

Question: For `COc1cccc(Cn2c(=O)n(CCc3ccccc3)c(=O)c3c2c2cc(OC)ccc2n3C)c1`, which “activity change, negative = inhibition” value is on record?
Answer: The value was inactive: 5.31%.

Question: For `CCCCn1c(SCc2ncc(-c3ccccc3)o2)nc2cc(S(N)(=O)=O)ccc21`, which Potency is on record?
Answer: The Potency was inconclusive: 28.2 µM [inhibitor, partial curve, poor fit].

Question: With `O=S(=O)(c1cnc(Cl)c(Br)c1)N1CCc2ccccc21` as the molecule, how does the Potency read?
Answer: Its Potency is inconclusive: 39.8 µM [inhibitor, single point].

Question: For `C(=N\Nc1nncc2ccccc12)/c1ccccn1`, which Potency is on record?
Answer: Its Potency is inconclusive: 3.16 µM [inhibitor, full curve, poor fit].

Question: Which “activity change, negative = inhibition” value does the source give for `CCOC(=O)C1CCN(C(=O)CSc2cc(=O)n(CC)c3ccccc23)CC1` here?
Answer: Its value is inactive: 10.2%.

Question: For `CC(C)C(O)(CC#CCN1CCCC1)c1ccccc1` (stereo unspecified), which activity change, negative = inhibition is on record?
Answer: Its activity change, negative = inhibition is inactive: -2.72% [at 11.3 µM].

Question: With `O=C(CCNC(=O)c1ccccc1Cl)Nc1nc(-c2ccc(F)cc2)cs1` as the molecule, how does the “activity change, negative = inhibition” value read?
Answer: Its value is inactive: -9.46%.

Question: With `O=C(N/N=C/c1ccc(O)c2ncccc12)c1cccc(Br)c1` as the molecule, how does the Potency read?
Answer: The Potency was inconclusive: 28.2 µM [inhibitor, single point].

Question: Which Potency does the source give for `O=C(Nc1nc2ccc([N+](=O)[O-])cc2s1)c1ccc(S(=O)(=O)N2CCCc3ccccc32)cc1` here?
Answer: The Potency was active: 13.4 µM.

Question: For `CN(C)c1ccc(CC(=O)N2CCCC(c3cc(C(=O)Nc4ccc5c(c4)OCO5)no3)C2)cc1` (stereo unspecified), which Potency is on record?
Answer: Its Potency is inconclusive: 35.5 µM [inhibitor, partial curve, poor fit].

Question: With `CCN1C(=O)c2ccccc2Sc2ccc(NC(=O)c3cccc(C)c3)cc21` as the molecule, how does the Potency read?
Answer: The Potency was inconclusive: 5.01 µM [inhibitor, partial curve, poor fit].

Question: For `CCCCN(Cc1ccco1)S(=O)(=O)c1ccc(-c2ccc(=O)[nH]n2)s1`, which “activity change, negative = inhibition” value is on record?
Answer: Its value is inactive: -21.9%.

Question: For `COc1ccc(CCNC(=O)Cn2nnc(C(=O)Nc3cc(C)ccc3C)c2N)cc1OC`, which “activity change, negative = inhibition” value is on record?
Answer: The value was inactive: -17.6%.

Question: For `CN(C)CCNC(=O)C(=O)NCC(c1cccnc1)N1CCN(c2ccccc2)CC1` (stereo unspecified), which “activity change, negative = inhibition” value is on record?
Answer: Its value is inactive: 5.77%.

Question: With `O=C(N/N=C/c1ccc(OC(F)F)cc1OC(F)F)NC1CCCCC1` as the molecule, how does the “activity change, negative = inhibition” value read?
Answer: The value was inactive: 21.5%.

Question: With `CC1=C(C(=O)N(C(C)C)C(C)C)CC(CC(=O)NC2CCCCC2)C(=O)N1Cc1ccc(C(C)(C)C)cc1` (stereo unspecified) as the molecule, how does the Potency read?
Answer: Its Potency is inconclusive: 22.4 µM [inhibitor, single point].

Question: For `Cc1ccc(-n2nc(C)c(C(=O)Nc3cccc(C(=O)NC4CC4)c3)n2)c(C)c1`, which Potency is on record?
Answer: The Potency was inconclusive: 35.5 µM [inhibitor, partial curve, poor fit].

Question: For `CCn1c(=N)n(CC(=O)c2ccc(OC)c(OC)c2)c2ccccc21`, which “activity change, negative = inhibition” value is on record?
Answer: The value was inactive: -31.9%.

Question: With `CC(C)N(C(=O)[C@H]1CC(CC(=O)NCC23CC4CC(CC(C4)C2)C3)C(=O)N2CCc3c([nH]c4ccccc34)[C@]12C)C(C)C` (stereo partly specified) as the molecule, how does the Potency read?
Answer: The Potency was inconclusive: 39.8 µM [inhibitor, single point].

Question: For `C[C@@H]1CN([C@@H](C)CO)C(=O)c2c(c3ccccc3n2C)-c2ccccc2CO[C@H]1CN(C)C(=O)[C@H](C)c1ccccc1`, which Potency is on record?
Answer: The Potency was inconclusive: 35.5 µM [inhibitor, single point].

Question: Which Potency does the source give for `CC[n+]1ccccc1/C=C/c1ccc(N(C)C)cc1` here?
Answer: Its Potency is inconclusive: 10 µM [inhibitor, partial curve, poor fit].

Question: With `Cc1c(C(=O)N2CCN(c3ccc(F)cc3)CC2)sc2ncnc(N3CCN(c4ccccn4)CC3)c12` as the molecule, how does the Potency read?
Answer: The Potency was inconclusive: 25.1 µM [inhibitor, single point].

Question: Which Potency does the source give for `c1cnc2c(c1)ccc1cccnc12` here?
Answer: Its Potency is active: 5.62 µM and inconclusive: 6.7 µM [inhibitor, full curve, poor fit].

Question: For `CC(=O)c1cccc(NC(=O)CCCSc2nc(-c3ccco3)cc(C(F)(F)F)n2)c1`, which Potency is on record?
Answer: Its Potency is inconclusive: 39.8 µM [inhibitor, single point].
